Measured values published in article PMC10668032.
This is one part of the list. At the low end of the ranking the order means little.

Molecular target: SIX1-Q177R homeodomain (UniProt Q15475)
Assay: universal protein binding microarray
Details: Universal all-10-mer PBM (8x60K, AMADID 030236), 300 nM GST-tagged protein, Alexa Fluor 488 anti-GST; buffer, salt, pH and temperature not stated; high values mean tight binding; most listed sequences are background and not binding sites; double strand, one strand shown

| Sequence | binding signal [E-score] |
| --- | --- |
| GTCTCGGA | 0.0128 |
| AAACAATA | -0.176 |
| ACCACCGC | 0.199 |
| TGAGACCA | -0.159 |
| AGGCAAAG | -0.205 |
| GGAGTATA | 0.136 |
| CCTGGAAG | -0.0497 |
| AATATCGG | -0.207 |
| AATAACAT | -0.0761 |
| CGCGCTGA | -0.0914 |
| CTTTAATC | -0.143 |
| GCAAACGA | -0.22 |
| TATTCACA | 0.208 |
| ATCCATGG | 0.0298 |
| CATTAAGG | -0.0903 |
| CTGTAATA | -0.142 |
| ACGACAGA | 0.0702 |
| ACTTGCGG | 0.032 |
| CTCGTCCC | -0.112 |
| CGATTCCA | -0.0597 |
| CCCTTTTA | -0.0363 |
| CAACTATA | -0.18 |
| ATGGTCCA | -0.0757 |
| CGCCACTA | 0.0373 |
| GCGTACTA | -0.058 |

| Sequence | binding signal [E-score] |
| --- | --- |
| GTGGAGGA | -0.0175 |
| AAGGGACT | -0.182 |
| CAAAGCGC | -0.0271 |
| TATGGCAA | -0.239 |
| TGTCTAAA | 0.199 |
| ATGATCTC | -0.232 |
| AAATTAGC | -0.0307 |
| GACGTGGA | -0.208 |
| AATGCGCA | -0.0854 |
| GACGCGAA | 0.0278 |
| ACCTCATC | 0.0254 |
| CGCTACCC | 0.119 |
| GATATGGC | -0.0634 |
| AGGACTAA | -0.195 |
| ATTCTATG | -0.055 |
| CCTCCCCG | 0.0262 |
| ACTCTAGA | -0.109 |
| GGGTAAGA | 0.135 |
| GCGGATCA | 0.119 |
| ATAGTAAA | 0.0805 |
| AACCCCTT | 0.147 |
| ATTCCGAC | 0.0927 |
| CCGATGGC | -0.0797 |
| ACTTCCCG | -0.0907 |
| CCCTAGTC | 0.167 |

| Sequence | binding signal [E-score] |
| --- | --- |
| CACTCTAG | 0.174 |
| ACCAGTCT | 0.087 |
| GAGGGGTA | 0.277 |
| ACGTAGGC | -0.273 |
| CGTTACAA | -0.172 |
| AATCTGAG | -0.0658 |
| AGAGCAAT | -0.0855 |
| GGTATCCA | 0.369 |
| CAAGAACG | -0.0355 |
| ACCAATTG | -0.0697 |
| AAGCACAG | -0.00471 |
| ACGGGCGG | 0.159 |
| TACTGGGA | 0.031 |
| AAAACGGT | -0.039 |
| CCCACAAG | 0.0657 |
| CTACTTAC | -0.0716 |
| ACGGTTTA | 0.158 |
| ATATCTGG | -0.0415 |
| ATCTAAAG | 0.0222 |
| AGATGCCG | -0.00312 |
| AGCCTAAC | -0.153 |
| ATAAAGGA | -0.0843 |
| GCTAGTCA | -0.258 |
| AAAGGCTC | -0.266 |
| GAGCGTCC | -0.141 |

| Sequence | binding signal [E-score] |
| --- | --- |
| CGCAAGCC | -0.133 |
| AAGTCGGG | -0.0381 |
| AAATTCTC | -0.138 |
| AATTTAGC | -0.219 |
| AGACATCG | -0.303 |
| CTTGTGAA | -0.0929 |
| GGGATACA | 0.234 |
| AAGACCAA | -0.163 |
| AAAAGTAG | -0.0589 |
| GTTGTCTA | 0.081 |
| CCTTGATC | 0.147 |
| AGCCCGAC | 0.00669 |
| AGGTCCAG | -0.187 |
| ACTTAAGA | -0.0316 |
| GAGGAACC | -0.00613 |
| CTTTCGAA | -0.256 |
| GAAAATTC | -0.241 |
| AGAGTAGG | -0.0217 |
| AATATAAT | -0.096 |
| CGTTGTAC | -0.122 |
| ATATGCTG | -0.0689 |
| CGTACGAG | -0.229 |
| AAACTGCT | -0.181 |
| GTCTACCA | -0.172 |
| ATCCGTTG | 0.118 |

| Sequence | binding signal [E-score] |
| --- | --- |
| CACATAAA | 0.0469 |
| ATGCTGTC | -0.162 |
| AGACTGTC | -0.0478 |
| CAAGTATC | 0.089 |
| GCGAGTCC | -0.0951 |
| GCTGGGTA | 0.227 |
| CCCTCCTA | 0.129 |
| AGGGAGTC | 0.239 |
| GATGCGAC | -0.0757 |
| AGTAGAGG | 0.0994 |
| TAAGATCA | -0.152 |
| ATACCCAC | 0.196 |
| CTTTGATC | -0.0842 |
| CTGGCTAA | -0.202 |
| AGGAATCA | -0.0713 |
| AACGTTAG | -0.214 |
| AACCGTTC | -0.146 |
| CGGATATA | 0.126 |
| ATCCACTC | 0.203 |
| AACCTCGT | -0.0806 |
| CATCATTA | -0.0403 |
| GGTTTCTA | -0.03 |
| AGACCCAA | -0.16 |
| CGTGCTCA | 0.256 |
| CTCTTTTA | -0.0754 |

| Sequence | binding signal [E-score] |
| --- | --- |
| CTGATCCC | 0.232 |
| ATGGGTTG | -0.163 |
| TACGGGGA | -0.072 |
| CCTCTCCA | -0.0711 |
| CAAATTTA | -0.132 |
| CGTGCCTA | -0.17 |
| CCCCGCCG | 0.241 |
| ACACAAGA | 0.13 |
| GAAGACGC | -0.0235 |
| TACCTGAA | -0.115 |
| ACAAACCG | 0.0722 |
| AGTAGAAA | -0.0595 |
| CTTGAAAA | -0.231 |
| GTCCAAAC | -0.118 |
| AGTACTGG | -0.0788 |
| ACCTGAGA | 0.0277 |
| GTAGAACA | 0.125 |
| ACTTTCTA | -0.081 |
| AGGGCTCC | -0.282 |
| AAACCAAT | -0.0171 |
| AACTCTCT | -0.0926 |
| AGAGCGTC | -0.211 |
| ATCTCCAG | -0.166 |
| AGGTAAGC | -0.133 |
| ACGTTTCC | -0.229 |

| Sequence | binding signal [E-score] |
| --- | --- |
| GCTAAGTA | -0.0323 |
| ACGTGACC | -0.0527 |
| AAGTCAAC | -0.0959 |
| CGTACCCC | 0.24 |
| GATGATTA | -0.167 |
| AGTATGTC | -0.0906 |
| ACCAGTAT | 0.0234 |
| ACTGACCA | 0.00421 |
| CGGGACAA | -0.165 |
| ATATCGGG | 0.0231 |
| CTCGTGTC | 0.409 |
| CGAGAAAC | -0.0012 |
| CGCTCCAG | 0.0256 |
| ACCGCAGA | 0.0559 |
| CATTGCAG | 0.127 |
| GGTACATA | -0.0138 |
| AGAGCAAA | -0.375 |
| CAAGTACG | -0.254 |
| AATGGAGG | -0.111 |
| CATAAATC | -0.107 |
| TGGTTAAA | -0.0396 |
| AATGCTCT | -0.157 |
